Test results published in publication PMC12820563.
Some of the results follow. The list includes weakly bound sequences.

These sequences were tested against T1, MBP-FoxP3dN (UniProt Q99JB6) (assay: PD-seq (MBP pull-down with sequencing)). Conditions: 20 mM Tris-HCl pH 7.5, 100 mM NaCl, 1.5 mM MgCl2, 0.4 uM protein, 0.1 uM dsDNA library, 30 min, room temperature, amylose pull-down; high values mean tight binding; double strand, one strand shown.
T1 sequence: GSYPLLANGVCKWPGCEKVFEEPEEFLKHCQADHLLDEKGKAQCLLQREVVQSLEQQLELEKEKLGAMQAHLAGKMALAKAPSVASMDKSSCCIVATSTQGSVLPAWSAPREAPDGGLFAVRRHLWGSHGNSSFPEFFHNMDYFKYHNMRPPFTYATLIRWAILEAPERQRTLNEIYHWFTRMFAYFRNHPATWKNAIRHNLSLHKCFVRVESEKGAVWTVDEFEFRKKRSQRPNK

Row | Sequence | binding signal (RPM ratio (pull-down/input))
1 | GATGATTGTTCTCCCAGCTGATGAATTTACGTACTCGAGTAAACAAATTTTCCTAATCTTTCTGTTCAAGCGCCATCTAC | 0.753
2 | GATGATTGTTCTCCCAGCTGATGAATTAGGATGTTCGAGTAAACAAATTTTCCTAATCTTTCTGTTCAAGCGCCATCTAC | 0.82
3 | GATGATTGTTCTCCCAGCTGATGAATTGGCAGTATCGAGTAAACAAATTTTCCTAATCTTTCTGTTCAAGCGCCATCTAC | 0.579
4 | GATGATTGTTCTCCCAGCTGATGAATTCACCATGTCGAGTAAACAAATTTTCCTAATCTTTCTGTTCAAGCGCCATCTAC | 0.335
5 | GATGATTGTTCTCCCAGCTGATGAATTCGTTTGTTCGAGTAAACAAATTTTCCTAATCTTTCTGTTCAAGCGCCATCTAC | 5.83
6 | GATGATTGTTCTCCCAGCTGATGAATTGACCATTTCGAGTAAACAAATTTTCCTAATCTTTCTGTTCAAGCGCCATCTAC | 0.397
7 | GATGATTGTTCTCCCAGCTGATGAATTACTATATTCGAGTAAACAAATTTTCCTAATCTTTCTGTTCAAGCGCCATCTAC | 0.504
8 | GATGATTGTTCTCCCAGCTGATGAATTTGGCTTCTCGAGTAAACAAATTTTCCTAATCTTTCTGTTCAAGCGCCATCTAC | 2.06
9 | GATGATTGTTCTCCCAGCTGATGAATTGCAAGGTTCGAGTAAACAAATTTTCCTAATCTTTCTGTTCAAGCGCCATCTAC | 0.745
10 | GATGATTGTTCTCCCAGCTGATGAATTAAACGCCTCGAGTAAACAAATTTTCCTAATCTTTCTGTTCAAGCGCCATCTAC | 0.63
11 | GATGATTGTTCTCCCAGCTGATGAATTAATCACTTCGAGTAAACAAATTTTCCTAATCTTTCTGTTCAAGCGCCATCTAC | 0.787
12 | GATGATTGTTCTCCCAGCTGATGAATTTCCCCTCTCGAGTAAACAAATTTTCCTAATCTTTCTGTTCAAGCGCCATCTAC | 0.24
13 | GATGATTGTTCTCCCAGCTGATGAATTTACTTGTTCGAGTAAACAAATTTTCCTAATCTTTCTGTTCAAGCGCCATCTAC | 3.06
14 | GATGATTGTTCTCCCAGCTGATGAATTCGACCCATCGAGTAAACAAATTTTCCTAATCTTTCTGTTCAAGCGCCATCTAC | 0.343
15 | GATGATTGTTCTCCCAGCTGATGAATTCCGAATCTCGAGTAAACAAATTTTCCTAATCTTTCTGTTCAAGCGCCATCTAC | 1.7
16 | GATGATTGTTCTCCCAGCTGATGAATTAATTAAGTCGAGTAAACAAATTTTCCTAATCTTTCTGTTCAAGCGCCATCTAC | 0.313
17 | GATGATTGTTCTCCCAGCTGATGAATTAATGTTGTCGAGTAAACAAATTTTCCTAATCTTTCTGTTCAAGCGCCATCTAC | 2.61
18 | GATGATTGTTCTCCCAGCTGATGAATTGGAATAATCGAGTAAACAAATTTTCCTAATCTTTCTGTTCAAGCGCCATCTAC | 0.287
19 | GATGATTGTTCTCCCAGCTGATGAATTCCCACGATCGAGTAAACAAATTTTCCTAATCTTTCTGTTCAAGCGCCATCTAC | 0.233
20 | GATGATTGTTCTCCCAGCTGATGAATTCCTTGACTCGAGTAAACAAATTTTCCTAATCTTTCTGTTCAAGCGCCATCTAC | 0.265
21 | GATGATTGTTCTCCCAGCTGATGAATTTACCGAGTCGAGTAAACAAATTTTCCTAATCTTTCTGTTCAAGCGCCATCTAC | 0.294

Row | Sequence | binding signal (RPM ratio (pull-down/input))
22 | GATGATTGTTCTCCCAGCTGATGAATTACTCCGCTCGAGTAAACAAATTTTCCTAATCTTTCTGTTCAAGCGCCATCTAC | 0.221
23 | GATGATTGTTCTCCCAGCTGATGAATTGTCCAGGTCGAGTAAACAAATTTTCCTAATCTTTCTGTTCAAGCGCCATCTAC | 0.186
24 | GATGATTGTTCTCCCAGCTGATGAATTGTCGTCTTCGAGTAAACAAATTTTCCTAATCTTTCTGTTCAAGCGCCATCTAC | 0.777
25 | GATGATTGTTCTCCCAGCTGATGAATTAAGTCCATCGAGTAAACAAATTTTCCTAATCTTTCTGTTCAAGCGCCATCTAC | 0.318
26 | GATGATTGTTCTCCCAGCTGATGAATTATTCTGCTCGAGTAAACAAATTTTCCTAATCTTTCTGTTCAAGCGCCATCTAC | 0.328
27 | GATGATTGTTCTCCCAGCTGATGAATTGCTACTATCGAGTAAACAAATTTTCCTAATCTTTCTGTTCAAGCGCCATCTAC | 0.945
28 | GATGATTGTTCTCCCAGCTGATGAATTCTTACTATCGAGTAAACAAATTTTCCTAATCTTTCTGTTCAAGCGCCATCTAC | 0.328
29 | GATGATTGTTCTCCCAGCTGATGAATTCCGGTAGTCGAGTAAACAAATTTTCCTAATCTTTCTGTTCAAGCGCCATCTAC | 0.384
30 | GATGATTGTTCTCCCAGCTGATGAATTCTTTTTGTCGAGTAAACAAATTTTCCTAATCTTTCTGTTCAAGCGCCATCTAC | 0.437
31 | GATGATTGTTCTCCCAGCTGATGAATTTTTATCCTCGAGTAAACAAATTTTCCTAATCTTTCTGTTCAAGCGCCATCTAC | 0.287
32 | GATGATTGTTCTCCCAGCTGATGAATTGCCTTATTCGAGTAAACAAATTTTCCTAATCTTTCTGTTCAAGCGCCATCTAC | 0.85
33 | GATGATTGTTCTCCCAGCTGATGAATTAGAGGACTCGAGTAAACAAATTTTCCTAATCTTTCTGTTCAAGCGCCATCTAC | 0.299
34 | GATGATTGTTCTCCCAGCTGATGAATTAATAACGTCGAGTAAACAAATTTTCCTAATCTTTCTGTTCAAGCGCCATCTAC | 0.487
35 | GATGATTGTTCTCCCAGCTGATGAATTGGGGTTATCGAGTAAACAAATTTTCCTAATCTTTCTGTTCAAGCGCCATCTAC | 0.803
36 | GATGATTGTTCTCCCAGCTGATGAATTCAATCGCTCGAGTAAACAAATTTTCCTAATCTTTCTGTTCAAGCGCCATCTAC | 0.344
37 | GATGATTGTTCTCCCAGCTGATGAATTCTCTGTGTCGAGTAAACAAATTTTCCTAATCTTTCTGTTCAAGCGCCATCTAC | 0.353
38 | GATGATTGTTCTCCCAGCTGATGAATTTACTTGGTCGAGTAAACAAATTTTCCTAATCTTTCTGTTCAAGCGCCATCTAC | 1.26
39 | GATGATTGTTCTCCCAGCTGATGAATTTCCACCGTCGAGTAAACAAATTTTCCTAATCTTTCTGTTCAAGCGCCATCTAC | 0.248
40 | GATGATTGTTCTCCCAGCTGATGAATTGGGGCTTTCGAGTAAACAAATTTTCCTAATCTTTCTGTTCAAGCGCCATCTAC | 0.848
41 | GATGATTGTTCTCCCAGCTGATGAATTATATGGTTCGAGTAAACAAATTTTCCTAATCTTTCTGTTCAAGCGCCATCTAC | 1.29
42 | GATGATTGTTCTCCCAGCTGATGAATTACTTATCTCGAGTAAACAAATTTTCCTAATCTTTCTGTTCAAGCGCCATCTAC | 0.462

Row | Sequence | binding signal (RPM ratio (pull-down/input))
43 | GATGATTGTTCTCCCAGCTGATGAATTGACCGGCTCGAGTAAACAAATTTTCCTAATCTTTCTGTTCAAGCGCCATCTAC | 0.209
44 | GATGATTGTTCTCCCAGCTGATGAATTTAAAAATTCGAGTAAACAAATTTTCCTAATCTTTCTGTTCAAGCGCCATCTAC | 0.192
45 | GATGATTGTTCTCCCAGCTGATGAATTGCCGCTCTCGAGTAAACAAATTTTCCTAATCTTTCTGTTCAAGCGCCATCTAC | 0.765
46 | GATGATTGTTCTCCCAGCTGATGAATTAGTATAATCGAGTAAACAAATTTTCCTAATCTTTCTGTTCAAGCGCCATCTAC | 1.21
47 | GATGATTGTTCTCCCAGCTGATGAATTTCCTGGCTCGAGTAAACAAATTTTCCTAATCTTTCTGTTCAAGCGCCATCTAC | 0.226
48 | GATGATTGTTCTCCCAGCTGATGAATTATTTTGCTCGAGTAAACAAATTTTCCTAATCTTTCTGTTCAAGCGCCATCTAC | 0.946
49 | GATGATTGTTCTCCCAGCTGATGAATTCAAGGTATCGAGTAAACAAATTTTCCTAATCTTTCTGTTCAAGCGCCATCTAC | 0.478
50 | GATGATTGTTCTCCCAGCTGATGAATTGGCCTTATCGAGTAAACAAATTTTCCTAATCTTTCTGTTCAAGCGCCATCTAC | 0.637
51 | GATGATTGTTCTCCCAGCTGATGAATTAGCCGCATCGAGTAAACAAATTTTCCTAATCTTTCTGTTCAAGCGCCATCTAC | 0.945
52 | GATGATTGTTCTCCCAGCTGATGAATTTCACACCTCGAGTAAACAAATTTTCCTAATCTTTCTGTTCAAGCGCCATCTAC | 0.387
53 | GATGATTGTTCTCCCAGCTGATGAATTTCTAGGCTCGAGTAAACAAATTTTCCTAATCTTTCTGTTCAAGCGCCATCTAC | 0.195
54 | GATGATTGTTCTCCCAGCTGATGAATTCACCGAATCGAGTAAACAAATTTTCCTAATCTTTCTGTTCAAGCGCCATCTAC | 0.205
55 | GATGATTGTTCTCCCAGCTGATGAATTACACTGTTCGAGTAAACAAATTTTCCTAATCTTTCTGTTCAAGCGCCATCTAC | 0.64
56 | GATGATTGTTCTCCCAGCTGATGAATTATGTTAATCGAGTAAACAAATTTTCCTAATCTTTCTGTTCAAGCGCCATCTAC | 1.49
57 | GATGATTGTTCTCCCAGCTGATGAATTCCACGACTCGAGTAAACAAATTTTCCTAATCTTTCTGTTCAAGCGCCATCTAC | 0.254
58 | GATGATTGTTCTCCCAGCTGATGAATTAAAAAGTTCGAGTAAACAAATTTTCCTAATCTTTCTGTTCAAGCGCCATCTAC | 0.166
59 | GATGATTGTTCTCCCAGCTGATGAATTCTATGCGTCGAGTAAACAAATTTTCCTAATCTTTCTGTTCAAGCGCCATCTAC | 0.794
60 | GATGATTGTTCTCCCAGCTGATGAATTCCCCCTATCGAGTAAACAAATTTTCCTAATCTTTCTGTTCAAGCGCCATCTAC | 0.276
61 | GATGATTGTTCTCCCAGCTGATGAATTGGACGTCTCGAGTAAACAAATTTTCCTAATCTTTCTGTTCAAGCGCCATCTAC | 0.388
62 | GATGATTGTTCTCCCAGCTGATGAATTTTCTCAATCGAGTAAACAAATTTTCCTAATCTTTCTGTTCAAGCGCCATCTAC | 0.217
63 | GATGATTGTTCTCCCAGCTGATGAATTTCCTCCTTCGAGTAAACAAATTTTCCTAATCTTTCTGTTCAAGCGCCATCTAC | 0.196
